The supplement of paper PMC10126150
Values marked as one replicate rest on one cluster of the flow cell; about a third of the high ones do not repeat.

Test system: ATP
Experiment: switch fluorescence ratio, 500 uM ATP over buffer (Cy3 cluster intensity, sum of 5 cycles each) (fold (ratio)); higher = stronger signal-on switching upon ATP binding; sequences stand for … in TCGTCGGCAGCGTCAGATGTGTATAAGAGACAGTTTTTTTTTTTTTTTTTTTTTTTTT…TC
Settings: aptamer strand: ATP DNA aptamer (quencher-CACCTGGGGGAGTATTGCGGAGGAAGG + anchor), 100 nM annealed; ATP concentration: 500 uM; one replicate
In short: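 Clusters carrying Cy3-labelled switching strands on a modified Illumina MiSeq flow-cell were annealed to 100 nM quencher-labelled ATP aptamer and imaged in selection buffer. They were imaged again after 15 min with 500 uM ATP at 22 °C, over five buffer/ATP cycles with NaOH stripping and re-annealing in between. For each cluster, the fluorescence ratio is the summed Cy3 intensity of the target cycles divided by that of the buffer cycles, averaged per switch-domain sequence. Clusters outside 100-1000 RFU were left out.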
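Also: ATP exposure 15 min at 22 °C before imaging.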

Sequence	switch fluorescence ratio
TGGTAGCCG	0.99
TTACAGATCT	0.972
GCTATAACTA	0.989
GGCTTGAGCA	1
GGTCCCAAG	1.01
TCATGATTAT	1.02
TATTAAAATG	0.969
TCTATACGGT	1.49
CAAGAGGCAT	1
TGTATTTCCG	1.01
GATGTCTGCC	0.991
GAATACTTG	1.01
CGTAAATGGA	0.974
TCATAGGTG	1.27
GAGGAGTGTT	0.988
GTAGGGAATT	0.983
ACTAATTGTA	1.04
GCTAGATTAC	1.08
ACAGCGGTAC	3.62
ACTCCTGTGA	1.3
AAAAACGCGA	1.32
AAGCGCGGCA	0.976
GTGTGTGCCC	0.966

Sequence	switch fluorescence ratio
AACGTCAGTG	0.971
TGATGAGATA	1.02
CGTAATATAG	1.05
AGGAAGAGTG	0.928
CCAGCAACGG	1.31
TGGTAGTGC	0.999
AACAAGCTAC	1.57
AGTTGTAGGA	0.959
CATCATATTT	0.985
CGAACCTCTC	1.17
GGTGAGTCTC	0.994
GACGGCTGGG	0.96
GCCACGGGGT	1.02
GCTGGTTATT	0.944
CGGGTACTAT	0.975
CCATAGACCG	1.01
AGTAATATGT	1.05
ATGTAATGAA	0.974
ACAGAACAAT	1.11
GGGTCCTACA	0.967
AGGCCTTCTT	0.95
GGGGATCAAA	1
TTGCGAACCT	1.51

Sequence	switch fluorescence ratio
GGCTGTCCGT	1.02
CAAGGAGTCG	1.06
ACCAGACATC	1.05
AACGCGTCGT	1.14
CGTGCTACAT	1.01
TTCGGGACCA	0.987
ATGTGGCAAT	1.19
ACGGTCCGTC	1
AGTTAATCTT	0.968
TATAATTCGG	1
GTATGACGGA	1.08
TCCGTTTTC	1.13
TATTTAATCT	0.993
TCCAGCAGGG	1.09
GGTGTACAGT	1.01
CGGGGCAACA	1
CATGTAAATA	1.01
GGATATCTAG	1.01
TTCCACCCGC	2.05
CGATAGTTTG	0.992
TTTCACGGCA	1.06
CGCTAGATA	1.05
GACCAATACG	2.21

Sequence	switch fluorescence ratio
ATCCATTGAT	0.986
CCGAATTAGG	1.05
AGGCATGTTG	0.988
AGAATCGATG	0.953
TGCATGGGAC	1.03
GATACTTGAT	0.974
AAACGACCGC	1.21
ACCGTGAGGG	0.976
ACACGTATGG	1
AGTTGGACC	1.04
ACTCCAAGCG	1.34
ATGCATTTG	1.07
TGTGGTAGCT	0.993
AGGGGAGGG	0.976
ATAGATGTCC	1
TGTTCCTGCC	1.49
TTAATTCGGA	0.954
TGGGAACCCC	1.37
GAATAAGGTT	1.01
AAATGTCTTA	0.96
ATAAAATAGA	0.972
AGCGAGGTCA	0.991
TTTAACGACA	1.02

Sequence	switch fluorescence ratio
CATCATTTCT	1.06
GCCAGGCAGC	1.04
TACAGGGTTC	1
TGTCGACGTT	0.998
CTTAAATAAT	0.998
TTATATAATG	1.01
TATTATTCGA	1.04
TATCCATCTT	0.966
GTATTGCACT	0.987
GAAGATCGCG	0.987
GATCACGCAT	1.5
CTGGAACTAA	0.995
GCCGTCTTG	1.04
GCTTGCACCG	1.02
AGAACCAAGT	1.03
ACCTGCTAAA	1.02
AACGTTCGAC	1.12
CAGCTTTA	1.46
CAATGTGTAA	1
CCCAGACGCT	1.2
AGATAAATAG	1.03
TAAGCGAGCG	1.23
GTAGTCGCGT	0.985

Sequence	switch fluorescence ratio
TATGTTGAAA	0.984
AGAGCGCGAA	1.04
CATTATCGTC	0.962
ATACCAGTCG	0.928
GTAGTTCTAT	0.997
GTATTCGCCG	0.957
TCGGTCTCAA	1.05
GTAGGGAGCG	0.937
GGAGACTCAT	0.957
CATTGAAAGC	0.977
CCAAAGTTGA	0.995
ACAACATATT	0.986
CAATCTTAA	1.02
TGATCTCCTT	0.959
GCACCTGTTG	1.04
AGCCGACGTA	1.02
ACCTTATCCC	1.22
GTACTTATAA	1.05
ACAGGCTTGG	1
ACCACAGTCC	1.1
TGAATGGTTG	0.951
GGGTCTGAGA	0.987
CTCGGACGTG	0.993

Sequence	switch fluorescence ratio
AATTTGTTAA	0.989
GGGAGATTTC	0.951
AACCAGACGT	1.31
AATGTGGTG	0.966
TATCGTGGGC	1.01
AGTTGTGAAC	0.989
ACACGAGCTT	1.01
GCAGGATTCT	0.991
TGCTACTATG	0.982
GCGTGCAAAC	1.01
TCTTTAATC	0.944
AATGAATCTA	0.969
TGTGTGACTC	1.02
AACATGGTGT	1.03
CATTTTATC	0.973
CTCTCCTAGT	1.1
AACCAATATA	0.967
TGCGTTGCCC	1.01
GAAAGGACGT	0.966
